{"source": "PubChem BioAssay AID2675", "about": "(National Center for Advancing Translational Sciences (NCATS), 2010)", "note": "The whole screen tested about 280,000 compounds, of which about 100 (0.036%) were called active. The inconclusive results got no clear call from the source; some entries with a clear call stand among them for comparison. The call rests on the fitted dose curve; in most records, active means well fitted inhibition curve with a large enough effect in the signal ratio, with a control signal flat (not every such curve was filed as active); inconclusive means small, poorly fitted or top-dose-only effect, or effect the other way, or a change in a side signal; inactive means no such curve, though single readings can be large or run the other way; the % refers to the signal ratio. A potency beside an inconclusive call is a rough fit, not a confirmed value. “Side channel” marks fits to a control or component signal instead of the main read-out. Potency means the concentration at half of the fitted maximal effect; tags describe the fitted curve by direction and shape or compound fluorescence and quenching.", "data": [{"biological_target": "Muscleblind-like protein 1 (Homo sapiens) (UniProt Q9NR56)", "sequence (Q9NR56 whole entry, looked up)": "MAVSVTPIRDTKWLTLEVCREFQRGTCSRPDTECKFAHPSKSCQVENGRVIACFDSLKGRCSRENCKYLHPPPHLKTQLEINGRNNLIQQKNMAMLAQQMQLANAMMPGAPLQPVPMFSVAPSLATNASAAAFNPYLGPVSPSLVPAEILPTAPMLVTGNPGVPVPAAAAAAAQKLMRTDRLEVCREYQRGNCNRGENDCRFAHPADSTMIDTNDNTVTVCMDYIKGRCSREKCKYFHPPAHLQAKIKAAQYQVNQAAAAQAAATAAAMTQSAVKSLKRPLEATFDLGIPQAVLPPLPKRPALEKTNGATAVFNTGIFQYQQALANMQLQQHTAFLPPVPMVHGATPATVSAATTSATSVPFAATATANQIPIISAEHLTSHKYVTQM", "test": "qHTS Assay for Inhibitors of MBNL1-poly(CUG) RNA binding", "conditions": "TR-FRET MBNL1-His/biotin-(CUG)12 binding, 665/545 ratio; series mostly up to 57.5 µM", "method_in_brief": "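Inhibition of protein-RNA binding appears as loss of TR-FRET between terbium anti-His antibody on MBNL1-His and streptavidin-XL665 on biotin-(CUG)12. Activity is normalized to buffer-only and uninhibited-complex controls.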", "values": [{"smiles": "Cc1ccc(C(=O)N/N=C\\c2ccc3c(c2)OCO3)cn1", "Potency": "inconclusive: 20 µM [quencher, side channel, partial curve]"}, {"smiles": "COc1ccc(CNS(=O)(=O)c2ccc(NC(=O)N3CCCCC3)cc2)cc1", "Potency": "inactive"}, {"smiles": "CC(C)NC(=O)NC(=O)COC(=O)c1ccc([N+](=O)[O-])cc1Cl", "Potency": "inconclusive: 25.1 µM [quencher, side channel, partial curve, poor fit]"}, {"smiles": "O=C(Nc1ccc(CN2CCOCC2)cc1)c1ccc(-c2cccc(Cl)c2)o1", "Potency": "inconclusive: 17.8 µM [quencher, single point]"}, {"smiles": "Cc1cc(N2CCOCC2)nc(SCc2ccc(Cl)cc2Cl)n1", "Potency": "inactive"}, {"smiles": "Cc1c(C#N)c(O)n(CCO)c(=O)c1N=Nc1ccccc1", "Potency": "inconclusive: 2.82 µM [quencher, side channel, full curve]"}, {"smiles": "O=c1cc2oc3cc(O)c(O)cc3c(-c3ccccc3[N+](=O)[O-])c-2cc1O", "Potency": "inconclusive: 8.91 µM [quencher, side channel, partial curve]"}, {"smiles": "O=C(O)CCN1C(=O)c2ccc(NC(=O)C(c3ccccc3)c3ccccc3)cc2C1=O", "Potency": "inconclusive: 35.5 µM [quencher, side channel, single point]"}, {"smiles": "O=C(O)CCCNS(=O)(=O)c1cccc2nsnc12", "Potency": "inconclusive: 14.1 µM [quencher, side channel, partial curve]"}, {"smiles": "CCN(CC)c1nc2nonc2nc1N(CC)CC", "Potency": "inactive"}, {"smiles": "C=CCn1c(-c2cc(-c3ccccc3)sc2N)n[nH]c1=S", "Potency": "inactive"}, {"smiles": "C/C(=N\\NC(=S)NCc1ccccc1)c1ccccc1F", "Potency": "inactive"}, {"smiles": "Cc1nc(NC(=O)C(Cl)Cl)sc1C(=O)N(C)C", "Potency": "inconclusive: 8.91 µM [fluorescent, side channel, single point]"}, {"smiles": "COc1ccccc1Cn1c(=O)c2ccccc2n2c(Sc3ncnc4sccc34)nnc12", "Potency": "inactive"}, {"smiles": "Cc1ccccc1NC1=NS(=O)(=O)c2ccccc21", "Potency": "inactive"}, {"smiles": "Cn1nccc1CNC(=O)c1ccnn1C", "Potency": "inconclusive: 5.62 µM [fluorescent, side channel, full curve, poor fit]"}, {"smiles": "Cc1cc(NC(=O)CSc2nccn2-c2ccc([N+](=O)[O-])cc2)no1", "Potency": "inconclusive: 35.5 µM [quencher, side channel, single point]"}, {"smiles": "CNC(=O)/C(C#N)=C/c1cc(C)n(-c2ccc(N3CCOCC3)cc2)c1C", "Potency": "inconclusive: 8.91 µM [quencher, side channel, full curve, poor fit]"}, {"smiles": "CCOC(=O)c1oc2cc(OCC(N)=O)ccc2c(=O)c1-c1ccc(OC)c(OC)c1", "Potency": "inconclusive: 8.91 µM [quencher, side channel, partial curve]"}, {"smiles": "CC(NC(=O)c1ccc([N+](=O)[O-])cc1[N+](=O)[O-])c1ccc(-c2ccccc2)cc1", "note": "(stereo not given)", "Potency": "inconclusive: 7.94 µM [quencher, side channel, partial curve]"}, {"smiles": "COc1cc2c(cc1OC)-c1cc(Nc3ccc(F)cc3)nc(=O)n1CC2", "Potency": "inactive"}, {"smiles": "COc1ccc(C(=O)/C=C2/C(=O)Nc3ccccc32)c(OC)c1", "Potency": "inactive"}, {"smiles": "COc1ccc(CN(CC(=O)NC2CCCC2)C(=O)c2onc(C(N)=O)c2N)cc1", "Potency": "inconclusive: 14.1 µM [quencher, partial curve]"}, {"smiles": "COc1ccc(C(=O)Nc2ccccc2[N+](=O)[O-])cc1S(=O)(=O)N1CCOCC1", "Potency": "inconclusive: 14.1 µM [quencher, side channel, partial curve]"}, {"smiles": "COc1ccc(Br)cc1/C=N/NC(=O)CNC(=O)c1cccnc1", "Potency": "inconclusive: 28.2 µM [quencher, side channel, single point]"}, {"smiles": "O=C(CSc1cccc[n+]1[O-])Nc1c(Br)cc([N+](=O)[O-])cc1Br", "Potency": "inconclusive: 6.31 µM [quencher, side channel, partial curve]"}, {"smiles": "Cc1cc(C2C(=O)c3ccccc3C2=O)c(C)c(C)c1C", "Potency": "inconclusive: 31.6 µM [quencher, side channel, single point]"}, {"smiles": "COc1ccccc1/C=C1\\SC(=S)N(CCC(=O)NCCCn2ccnc2)C1=O", "Potency": "inconclusive: 7.08 µM [quencher, side channel, partial curve]"}, {"smiles": "CC1CCCCN1CCCNc1ccc(C(CC(N)=O)NC(=O)Cc2ccc(Br)cc2)cc1[N+](=O)[O-]", "note": "(stereo not given)", "Potency": "inconclusive: 25.1 µM [quencher, side channel, partial curve]"}, {"smiles": "c1cncc(Nc2nc(-c3ccncc3)cs2)c1", "Potency": "inconclusive: 14.1 µM [quencher, side channel, partial curve]"}, {"smiles": "CC(=O)Oc1cccc(N2C(=O)c3ccc(C(=O)Nc4c[nH]c(=O)[nH]c4=O)cc3C2=O)c1", "Potency": "inconclusive: 2 µM [quencher, full curve, poor fit]"}, {"smiles": "Cc1ccc(-n2c(=O)c(C#N)cc3c(=O)n4cccc(C)c4nc32)cc1", "Potency": "inconclusive: 0.631 µM [quencher, side channel, full curve]"}, {"smiles": "O=[N+]([O-])c1ccc(N/N=C/c2ccc(O)c(O)c2O)c(S(=O)(=O)N2CCOCC2)c1", "Potency": "inconclusive: 25.1 µM [quencher, side channel, partial curve]"}, {"smiles": "Cc1ccsc1/C=N/Nc1ccc(C(=O)O)cc1", "Potency": "inconclusive: 22.4 µM [quencher, side channel, partial curve]"}, {"smiles": "O=C(N/N=C\\C=C\\c1ccc2c(c1)OCO2)C1COc2cc3ccccc3cc2O1", "note": "(stereo not given)", "Potency": "inactive"}, {"smiles": "O=C(CSc1ccc2nnc(-c3ccccn3)n2n1)Nc1nccs1", "Potency": "inactive"}, {"smiles": "CCOC(=O)N1CCC(NC(=O)C(NS(=O)(=O)c2cccc3nsnc23)c2ccccc2)CC1", "note": "(stereo not given)", "Potency": "inconclusive: 14.1 µM [quencher, side channel, partial curve]"}, {"smiles": "COc1ccc(S(=O)(=O)NCCc2csc(-c3cccnc3)n2)cc1", "Potency": "inconclusive: 39.8 µM [quencher, side channel, single point]"}, {"smiles": "CCOCCCNS(=O)(=O)c1ccc(NC(=O)Cc2c(F)cccc2Cl)cc1", "Potency": "inactive"}, {"smiles": "Cc1ccn2c(Nc3ccc4c(c3)OCO4)c(-c3ccccn3)nc2c1", "Potency": "inconclusive: 35.5 µM [quencher, side channel, single point]"}]}]}
